Measurements from PMC12040169 (PLOS Biology, 2025).
Some of the results follow.

These compounds were tested on T1, C. trachomatis L2/434/Bu expressing GFP (CTL2-GFP). Settings: total inclusion area; 28.5 h, 10 µM; inhibitor.
T1 construct: L2/434/Bu GFP intracellular growth in HeLa cells
Design: species or system HeLa; C. trachomatis total inclusion area by high-content imaging, normalised to DMSO
In short: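 Post-fluorescence-read fixation, DNA staining with Hoechst and high-content imaging; GFP inclusion area and number per well, and nuclei counts, used as proxies for bacterial growth and host viability.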

Compound	% of control remaining
CCNc1nccnc1-c1ccccc1Cl [CBK037313]	76.7354
COc1ccccc1-c1cc(Nc2ccc(N3CCOCC3)cc2)ncn1 [CBK090933]	95.7887
CC(Cn1cncn1)C(=O)NC(C)C1CC2CCC1C2 (stereo not drawn) [CBK282089]	90.7582
Cc1cc(=O)n(CC(=O)Nc2ccc3c(c2)OCO3)cn1 [CBK287835]	92.4701
COc1cc(NC(=O)C(C)Oc2cccc(Cl)c2)c(C(=O)O)cc1OC (stereo not drawn) [CBK268470]	100.02
CC1=C(C)CC(C(=O)Nc2ccc(C(=O)NCc3cccnc3)cc2)C(C(=O)O)C1 (stereo not drawn) [CBK286567]	75.1672
NC(=O)C1CCN(C(=S)NC2CC3C=CC2C3)CC1 (stereo not drawn) [CBK085970]	62.04
CCOC(=O)c1cnc(SCc2nc(N)nc(Nc3ccc(C)cc3)n2)nc1N [CBK266292]	76.0691
COc1ccc(Oc2cc3n(c(=O)n2)CCc2cc(OC)c(OC)cc2-3)cc1 [CBK291177]	100.221
CC1(C)CC(=O)C2=C(C1)CC1(C)CC(C)(C)CC2(Nc2ccccn2)C1 (stereo not drawn) [CBK022425]	97.6668
C[C@H](NC(=O)OC(C)(C)C)C(=O)NC[C@H]1CC[C@H](C(=O)O)CC1 [CBK286741]	55.0853
C=CCNC(=O)N1CC[C@H]2CC(=O)N(Cc3cccnc3)CC[C@H]2C1 [CBK288791]	91.5214
CCP(CC)c1ccc(C(=O)O)cc1 [CBK019342B]	67.0963
Cc1ccc(Nc2cc(-c3cccc4cccnc34)ncn2)cc1NS(C)(=O)=O [CBK091152]	110.638
Cc1nnc(C(C)Sc2nnc(-c3ccc(F)cc3)n2CC2CCCO2)o1 (stereo not drawn) [CBK298298]	119.107
CN1CCOc2ccccc2C(=O)NC/C=C/CC2(CCCNC2)C1=O (stereo not drawn) [CBK292027]	92.9201
COc1cc(F)cc(OC2CCNCC2)c1NC(=O)Cc1cn(C)c2ccccc12 [CBK050245T]	95.1037
CCOc1ccc(S(=O)(=O)N(C)CC(=O)N2CCN(C)CC2)cc1Cl [CBK269865]	49.0275
O=C(CCCOc1ccccc1)Nc1ccc([N+](=O)[O-])cc1 [CBK263690]	99.3116
Cc1nc2cc(Cl)ccc2n1CCO [CBK110738]	92.6189
c1cc(C2CCCCN2Cc2ccc3[nH]ccc3c2)nc(Nc2nccs2)n1 (stereo not drawn) [CBK286109]	71.4001

Compound	% of control remaining
COC(=O)[C@H]1CN(C(=O)c2scnc2C)C[C@@H]1c1ccc(F)cc1 [CBK283520]	55.7584
CCCCc1ccc(NC(=O)CSc2nnc(N)s2)c(C)c1 [CBK057659]	99.7207
CCCCN1CCCC1c1c[nH]c2ccccc12 (stereo not drawn) [CBK023773G]	88.21
Cc1cc2nccc(C3CCCN(C(=O)OC(C)(C)C)C3)n2n1 (stereo not drawn) [CBK284037]	56.5197
Cn1c(=O)n(-c2cccc(Cl)c2)c(=O)n1C [CBK116498]	88.8358
CS(=O)(=O)c1nc2cccnc2s1 [CBK017260]	45.4628
CC(=O)Nc1ccc(N2C(=O)CC(N3CCN(Cc4ccc5c(c4)OCO5)CC3)C2=O)cc1 (stereo not drawn) [CBK265217]	121.096
COc1ccc(N2C(=O)c3ccccc3NC2c2cccc(OCC(=O)Nc3ccccc3)c2)cc1 (stereo not drawn) [CBK265406]	94.0488
Cc1nc(-c2ccncc2)c2c(C)nn(-c3ccc(F)cc3)c2n1 [CBK288545]	85.853
CCn1c(=O)n(CC(=O)NC2CCCCC2)c2cccnc21 [CBK283810]	107.609
CN(C)c1cc(=O)c2cc3c(cc2o1)CCC3 [CBK010017]	65.7853
COCC1=C(C(=O)OC)[C@H](c2ccc(F)c(F)c2)N(C(=O)NCCCN2CCC(c3cccc(NC(C)=O)c3)CC2)C(=O)N1 [CBK051451C]	102.246
O=C1N(CN2CCN(C(c3ccccc3)c3ccccc3)CC2)c2ccccc2C12OCCO2 [CBK265537]	94.2623
CN(C)CCCC(=O)Nc1ccc2ncccc2c1 [CBK159824]	84.5101
O=C(Nc1ccccc1)Nc1ccccc1C(=O)NCc1ccccc1 [CBK265338]	98.565
CONc1nc(NC(C)(C)C)nc(OCC#N)n1 [CBK263655]	108.476
Cc1cc(NC(=O)c2cc(Cl)sc2Cl)no1 [CBK010872]	79.4571
CC1CN(C(=S)Nc2ccc3ccccc3c2)CC(C)O1 (stereo not drawn) [CBK004993]	9.814
CC(C)(C)c1ccc(NC(=O)C(=O)NCCCn2ccnc2)cc1 [CBK267358]	89.8913
COCCn1c(CO)nnc1[C@H]1C[C@@H](NC(=O)c2cc(O)ccc2F)C1 [CBK307698]	49.8312
Cc1onc(-c2ccccc2)c1C(=O)n1cccn1 [CBK287274]	91.6708

Compound	% of control remaining
O=C1COC[C@H]([C@H](O)c2ccc(NC(=O)c3cnccn3)cc2)N1 [CBK289673]	89.2967
Cc1nn(C)cc1S(=O)(=O)NCC1(c2ccccc2)CCCC1 [CBK282766]	136.938
N#Cc1ccc(-c2nc3cc(Cl)c(F)cc3[nH]2)cc1 [CBK096290]	86.4042
Cc1cccc(OCC(=O)N2CCN(S(=O)(=O)c3ccc([N+](=O)[O-])cc3)CC2)c1 [CBK264221]	110.7
COc1cccc2cc(C(=O)NCc3cccc4ccccc34)oc12 [CBK149800]	95.387
Nc1ncc(-c2ccc(C(=O)N3CCOCC3)cc2)nc1C(=O)Nc1ccccc1 [CBK149153]	86.0347
Cc1ccc(S(=O)(=O)NCCSc2nc(-c3ccc([N+](=O)[O-])cc3)c[nH]2)cc1 [CBK268518]	92.1781
COc1cc(-c2nnc(SCC(=O)O)n2-c2ccccc2)cc(OC)c1OC [CBK131695]	59.7861
CN(CCC1CCOCC1)c1nc2c(c(=O)[nH]1)Cc1ccccc1OC2 [CBK306622]	80.1148
CCN(CC(=O)NC(C)(C)C)S(=O)(=O)c1cccc(C#N)c1 [CBK306087]	117.271
CS(=O)(=O)c1ccc(-c2cnc(N)c(NCC3CCOCC3)n2)cc1 [CBK063849]	80.9757
O=C(Cn1cc(C(=O)NC2CCCC2)ccc1=O)NCC1(c2ccccc2)CCCC1 [CBK286248]	91.3805
CCOC(=O)C(C(C)=O)(N1CCOCC1)N1CCOCC1 [CBK261173]	105.991
C[C@@H]1CN(C(=O)OCc2nccn2C)C[C@H](C)O1 [CBK200142]	89.577
O=C(CCN1C(=O)c2ccc(Br)cc2C1=O)N1CCN(Cc2ccccc2)CC1 [CBK269238]	89.9353
CN(CCCn1c(=S)[nH]c2ccccc2c1=O)C1CCCCC1 [CBK296642]	83.017
CCn1c(CN2CCCC2c2noc(C)n2)nc2cc(F)ccc21 (stereo not drawn) [CBK305250]	12.058
CN(Cc1cccnc1)C(=O)Cc1ccc(-n2cccn2)cc1 [CBK297726]	87.1981
Cc1ccccc1C(=O)Nc1cc(NC(=O)c2ccccc2C)cc(C(=O)O)c1 [CBK262007]	104.928
Cc1cccc(C(=O)NCCc2nc3ccccc3[nH]2)c1 [CBK263493]	101.415
O=C(CN1C(=O)c2ccccc2C1=O)Nc1cccc2cccnc12 [CBK261320]	102.213

Compound	% of control remaining
O=C(CSCc1ccc(Cl)c(Cl)c1)Nc1ncccn1 [CBK269998]	98.8124
NS(=O)(=O)c1ccc(NC(=O)CSc2nc3sc4c(c3c(=O)[nH]2)CCC4)cc1 [CBK265554]	122.818
O=C(Cc1cccc(F)c1)NCCn1nc(-c2ccco2)ccc1=O [CBK283708]	99.3752
O=C(N1CCOCC1)C12CC3CC(CC(C3)C1)C2 [CBK089368]	89.6424
Cc1nc[nH]c1CN(Cc1ccccc1)C1CC(C)(C)NC(C)(C)C1 [CBK283178]	104.684
CC(C)(CO)CNc1nc(-c2ccc(F)c(Cl)c2)cnc1N [CBK063484]	72.4718
O=C(NC(N1CCCCC1)C(Cl)(Cl)Cl)c1ccc(Cl)cc1Cl (stereo not drawn) [CBK261024]	89.8344
CCC(=O)N1CCc2cc(C(O)CN3CCCCC3)ccc21 (stereo not drawn) [CBK283111]	117.177
CC(C)(C)OC(=O)N1CCC(OCc2cn(-c3ccc(-n4cncn4)cc3)nn2)CC1 [CBK149477]	33.8892
Cc1nc2ccc(C(=O)NCCCN3Cc4ccccc4C3)cc2[nH]1 [CBK283301]	100.367
CNC(=O)c1ccc(-c2ccccc2C)nc1NCCOC [CBK106007]	111.688
Cc1cc(NC(=O)c2cccc(C(F)(F)F)c2)c2ccccc2n1 [CBK116263]	94.5537
Cn1ccc(CN2CCOC(c3nccs3)C2)cc1=O (stereo not drawn) [CBK304921]	46.9595
O=C(CCN1C(=O)c2ccccc2C1=O)NC(=S)Nc1ccccc1 [CBK267595]	88.31
O=[N+]([O-])c1ccc(CN2CCC(Oc3cncc(OCc4cccnc4)n3)C2)cc1 (stereo not drawn) [CBK084456]	91.9218
CCOC1(c2ccccc2)N=C2C(Cl)=CC(C(F)(F)F)=CN2N=C1c1ccccc1 (stereo not drawn) [CBK020634]	103.629
C[S+]([O-])c1ccc(-c2cnc(NCC3CCN(C(=O)OC(C)(C)C)CC3)cn2)cc1 (stereo not drawn) [CBK173723]	59.0609
Cc1ccc(C(=O)N2CCC3(CC2)CNC(=O)c2ccccc2O3)o1 [CBK285328]	86.7365
